{"source": "the supplement of paper PMC9446081", "note": "The whole screen tested about 39,000 compounds, of which about 220 (0.56%) showed activity. This is one part of the list.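 Note: static incubation at 37 °C against the wild-type strain, values averaged over two biological replicates.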"}
{"tested_on": "Escherichia coli K-12 BW25113", "assay": "relative growth (OD600 normalised to plate interquartile mean) (fraction); higher = less growth inhibition, active = 0.2 or less", "settings": "50 µM; LB; incubation time: overnight (16-24 h)"}
{"smiles": "COc1ccc(S(=O)(=O)N(C)C[C@@H]2OCCCC[C@H](C)Oc3ccc(NC(=O)Nc4cccc5ccccc45)cc3C(=O)N([C@H](C)CO)C[C@@H]2C)cc1", "relative growth": "inactive: 1.03"}
{"smiles": "C[C@H]1CCCCO[C@H](CN(C)Cc2ccc(Cl)c(Cl)c2)[C@@H](C)CN([C@@H](C)CO)C(=O)c2cc(NS(C)(=O)=O)ccc2O1", "relative growth": "inactive: 0.992"}
{"smiles": "COC(=O)[C@@H]1N2C(=O)[C@@H](N3CC4=C[C@@H](C5CC5)n5c(=O)n(C)c(=O)n5[C@@H]4[C@@H]3[C@@H](O)Cc3ccccc3)[C@H]2SC1(C)C", "relative growth": "inactive: 0.986"}
{"smiles": "COc1ccc2c3c([nH]c2c1)[C@@H](CO)N(C[C@]13CN(Cc2cc(on2)-c2ccccc2)C1)C(=O)Nc1ccc(cc1)F", "relative growth": "inactive: 1"}
{"smiles": "C[C@@H]1CN([C@H](C)CO)C(=O)c2cc(NC(=O)NC3CCCCC3)ccc2O[C@@H](C)CCCCO[C@@H]1CN(C)S(=O)(=O)c1ccccc1", "relative growth": "inactive: 0.961"}
{"smiles": "C[C@@H]1CN([C@@H](C)CO)C(=O)c2cc(NS(=O)(=O)c3cccs3)ccc2O[C@@H]1CN(C)S(=O)(=O)c1cccs1", "relative growth": "inactive: 1.01"}
{"smiles": "C[C@H](CO)N1C[C@H](C)[C@@H](CN(C)Cc2ccc(Oc3ccccc3)cc2)Oc2ccc(NC(=O)Nc3ccccc3)cc2C1=O", "relative growth": "inactive: 0.994"}
{"smiles": "C[C@@H]1CN([C@H](C)CO)C(=O)Cc2cc(NC(=O)Nc3ccc4c(c3)OCO4)ccc2O[C@@H]1CN(C)Cc1ccc(C(F)(F)F)cc1", "relative growth": "inactive: 1.02"}
{"smiles": "COc1ccc(NC(=O)N(C)C[C@H]2OCCCC[C@@H](C)Oc3ccc(NC(=O)Nc4c(C)noc4C)cc3C(=O)N([C@@H](C)CO)C[C@H]2C)cc1", "relative growth": "inactive: 1"}
{"smiles": "c1coc(CNc2ncnc3[nH]cnc23)c1", "relative growth": "inactive: 1.12"}
{"smiles": "CC(C)NC(=O)Nc1ccc2c(c1)C(=O)N([C@@H](C)CO)C[C@H](C)[C@@H](CN(C)C(=O)Nc1ccccc1)OCCCC[C@H](C)O2", "relative growth": "inactive: 1.01"}
{"smiles": "COCc1cn(C[C@H](Cc2ccccc2)NC(=O)N[C@H](CO)CCc2oc(C(=O)N3CCOCC3)c(C(=O)OC)c2C(=O)OC)nn1", "relative growth": "inactive: 0.975"}
{"smiles": "O=C(COc1ccccc1)Nc1nn[nH]n1", "relative growth": "inactive: 0.98"}
{"smiles": "CCOc1nc2c(N)ncnc2n1CC", "relative growth": "inactive: 0.991"}
{"smiles": "C[C@@H]1CN([C@@H](C)CO)C(=O)c2cc(NS(=O)(=O)c3cccs3)ccc2O[C@@H](C)CCCCO[C@@H]1CN(C)CC1CCCCC1", "relative growth": "inactive: 0.969"}
{"smiles": "C[C@@H]1CCCCO[C@H](CN(C)C(=O)Nc2ccc(F)cc2)[C@H](C)CN([C@@H](C)CO)C(=O)c2cc(NC(=O)NC3CCCCC3)ccc2O1", "relative growth": "inactive: 0.975"}
{"smiles": "CCOc1ccc2nc(S(N)(=O)=O)sc2c1", "relative growth": "inactive: 0.99"}
{"smiles": "C[C@H]1CN([C@@H](C)CO)C(=O)CCCn2nncc2CO[C@H]1CN(C)Cc1cccc2c1OCCCO2", "relative growth": "inactive: 0.992"}
{"smiles": "CN1C(=O)c2cc(NC(=O)c3cnccn3)ccc2OC[C@H]2O[C@@H](CC(=O)NCC3CCCCC3)CC[C@H]21", "relative growth": "inactive: 0.979"}
{"smiles": "CN1C(=O)c2cc(NC(=O)Cc3cccs3)ccc2OC[C@H]2O[C@@H](CC(=O)NCc3ccc(-c4ccccc4)cc3)CC[C@@H]21", "relative growth": "inactive: 0.999"}
{"smiles": "C[C@@H]1CCCCO[C@H](CN(C)Cc2ccccc2)[C@@H](C)CN([C@@H](C)CO)C(=O)c2cc(NC(=O)c3ccncc3)ccc2O1", "relative growth": "inactive: 1.01"}
{"smiles": "O=C(C[C@@H]1C=C[C@H](NC(=O)c2cnccn2)[C@H](CO)O1)NCc1ccccc1F", "relative growth": "inactive: 1.03"}
{"smiles": "C[C@H]1CCCCO[C@H](CN(C)S(=O)(=O)c2cccs2)[C@@H](C)CN([C@@H](C)CO)C(=O)c2cc(NS(=O)(=O)c3cn(C)cn3)ccc2O1", "relative growth": "inactive: 1.01"}
{"smiles": "C[C@H]1CN([C@@H](C)CO)C(=O)c2ccccc2-c2ccccc2CO[C@@H]1CN(C)S(=O)(=O)c1cn(C)cn1", "relative growth": "inactive: 1"}
{"smiles": "C[C@H](CO)N1C[C@H](C)[C@@H](CN(C)C(=O)c2ccncc2)OCCCC[C@H](C)Oc2ccc(NS(C)(=O)=O)cc2C1=O", "relative growth": "inactive: 1"}
{"smiles": "C[C@@H]1CN([C@@H](C)CO)C(=O)c2cc(NC(=O)Nc3ccc(F)cc3)ccc2O[C@@H](C)CCCCO[C@@H]1CN(C)C(=O)Cc1ccccc1", "relative growth": "inactive: 1.02"}
{"smiles": "C[C@@H]1CN([C@@H](C)CO)C(=O)c2cc(NC(=O)c3ccncc3)ccc2O[C@@H]1CN(C)Cc1ccc(C(=O)O)cc1", "relative growth": "inactive: 0.991"}
{"smiles": "C[C@H]1CN([C@@H](C)CO)C(=O)Cc2cc(NC(=O)Nc3ccc(F)cc3)ccc2O[C@H]1CN(C)CC1CCCCC1", "relative growth": "inactive: 0.978"}
{"smiles": "O=C(C[C@@H]1C=C[C@H](NC(=O)c2ccc3c(c2)OCO3)[C@@H](CO)O1)NCc1ccc(Oc2ccccc2)cc1", "relative growth": "inactive: 1.01"}
{"smiles": "C[C@H](CO)N1C[C@H](C)[C@H](CN(C)C(=O)c2ccccc2)OCCCC[C@H](C)Oc2ccc(NS(=O)(=O)c3ccc(F)cc3)cc2C1=O", "relative growth": "inactive: 1.01"}
{"smiles": "CN1CCN(C(=O)C[C@H]2CC[C@H]3[C@@H](COc4ccc(NC(=O)c5ccc(F)c(F)c5)cc4C(=O)N3C)O2)CC1", "relative growth": "inactive: 0.998"}
{"smiles": "C[C@@H](O)C#Cc1cnc2c(c1)C(=O)N([C@@H](C)CO)C[C@H](C)[C@H](CN(C)C(=O)Nc1ccc(C(F)(F)F)cc1)O2", "relative growth": "inactive: 1.01"}
{"smiles": "CNC(=O)CN1CCO[C@@H]2CN(Cc3nccs3)C[C@@H]21", "relative growth": "inactive: 0.953"}
{"smiles": "C[C@H](CO)N1C[C@H](C)[C@H](CN(C)S(=O)(=O)c2cn(C)cn2)Oc2ccc(NS(=O)(=O)c3ccccc3)cc2CC1=O", "relative growth": "inactive: 0.975"}
{"smiles": "CO[C@@H]1CN(C)C(=O)c2cc(NS(C)(=O)=O)ccc2OC[C@@H](C)N(C(=O)c2ccc3c(c2)OCO3)C[C@@H]1C", "relative growth": "inactive: 0.96"}
{"smiles": "NNC(=O)c1ccc(C(=O)NO)cc1", "relative growth": "inactive: 1.02"}
{"smiles": "C[C@H](CO)N1C[C@H](C)[C@H](CN(C)CC2CCCCC2)OCCCC[C@H](C)Oc2ccc(NC(=O)C3CCCCC3)cc2C1=O", "relative growth": "inactive: 0.934"}
{"smiles": "C[C@H]1CN([C@@H](C)CO)C(=O)Cc2cc(NC(=O)c3ccncc3)ccc2O[C@@H]1CN(C)S(=O)(=O)c1ccc(Cl)cc1", "relative growth": "inactive: 0.99"}
{"smiles": "C/C=C/c1cccc(-c2nc(C(=O)NCc3cccc(OC)c3)cc3c2[C@@H](CCO)N([S@](=O)C(C)(C)C)C3)c1", "relative growth": "inactive: 1.01"}
{"smiles": "CC(C)NC(=O)N(C)C[C@H]1Oc2ccc(NS(=O)(=O)c3ccc(Cl)cc3)cc2C(=O)N([C@@H](C)CO)C[C@H]1C", "relative growth": "inactive: 0.976"}
{"smiles": "Cc1noc(C)c1NC(=O)Nc1ccc2c(c1)C(=O)N([C@@H](C)CO)C[C@@H](C)[C@H](CN(C)Cc1ccc(Cl)c(Cl)c1)OCCCC[C@H](C)O2", "relative growth": "inactive: 1.01"}
{"smiles": "C[C@H]1CN([C@@H](C)CO)C(=O)c2cc(C#CC3(O)CCCC3)cnc2O[C@H]1CN(C)C(=O)C1CCCCC1", "relative growth": "inactive: 0.982"}
{"smiles": "COc1ccc([C@@H]([C@H](Cc2ccccc2)OC(C)=O)N2C[C@H]3[C@@H]([C@@H](O)c4ccccc4)ON(C)[C@H]3[C@@H]2Cc2ccccc2)cc1", "relative growth": "inactive: 1.04"}
{"smiles": "C[C@H](CO)N1C[C@H](C)[C@H](CN(C)C(=O)Nc2ccccc2)Oc2ccc(NC(=O)CCCCCC(=O)Nc3ccccc3N)cc2C1=O", "relative growth": "inactive: 0.989"}
{"smiles": "C[C@@H]1CN([C@@H](C)CO)C(=O)Cc2cc(NC(=O)Nc3cccc4ccccc34)ccc2O[C@@H]1CN(C)Cc1ccncc1", "relative growth": "inactive: 1.02"}
{"smiles": "C[C@H]1CN([C@@H](C)CO)C(=O)c2cccc(NC(=O)Nc3ccc(C(F)(F)F)cc3)c2O[C@@H]1CN(C)Cc1ccc(Cl)c(Cl)c1", "relative growth": "inactive: 0.926"}
{"smiles": "C[C@@H]1CCCCO[C@H](CN(C)C(=O)Nc2ccc3c(c2)OCO3)[C@@H](C)CN([C@H](C)CO)C(=O)c2cc(NC(=O)c3ccncc3)ccc2O1", "relative growth": "inactive: 1"}
{"smiles": "C[C@@H]1CN([C@H](C)CO)S(=O)(=O)c2ccc(Br)cc2O[C@@H]1CN(C)S(=O)(=O)c1ccc(F)cc1", "relative growth": "inactive: 0.892"}
{"smiles": "CN[C@@H]1[C@H](O[C@H]2[C@H](O[C@H]3[C@H](O)[C@@H](O)[C@H](NC(=N)N)[C@@H](O)[C@@H]3NC(=N)N)O[C@@H](C)[C@]2(O)C=O)O[C@@H](CO)[C@H](O)[C@H]1O", "relative growth": "inactive: 0.888"}
{"smiles": "C[C@H]1CN([C@@H](C)CO)C(=O)CCCn2cc(nn2)CO[C@H]1CN(C)S(=O)(=O)c1cn(C)cn1", "relative growth": "inactive: 0.995"}
{"smiles": "C[C@@H]1CN([C@H](C)CO)S(=O)(=O)c2ccc(C#Cc3ccccc3)cc2O[C@@H]1CN(C)S(=O)(=O)c1cn(C)cn1", "relative growth": "inactive: 1.02"}
{"smiles": "C[C@H](CO)N1C[C@H](C)[C@H](CN(C)Cc2ccc(C(=O)Nc3ccccc3N)cc2)Oc2ccc(NC(=O)Nc3ccc4c(c3)OCO4)cc2C1=O", "relative growth": "inactive: 0.953"}
{"smiles": "O=C(/C=N/O)Nc1ccccc1C(=O)O", "relative growth": "inactive: 1"}
{"smiles": "CNC[C@H]1Oc2ccc(NC(=O)CCN3CCOCC3)cc2CC(=O)N([C@H](C)CO)C[C@@H]1C", "relative growth": "inactive: 1.03"}
{"smiles": "C[C@@H]1CCCCO[C@H](CN(C)C(=O)CCCN(C)C)[C@@H](C)CN([C@H](C)CO)C(=O)c2cc(NC(=O)Nc3cccc4ccccc34)ccc2O1", "relative growth": "inactive: 1"}
{"smiles": "C[C@@H]1CN([C@H](C)CO)C(=O)c2cc(NC(=O)Nc3ccc(C(F)(F)F)cc3)ccc2O[C@H]1CN(C)Cc1ccc(C(=O)Nc2ccccc2N)cc1", "relative growth": "inactive: 1.06"}
{"smiles": "COc1ccc(S(=O)(=O)N(C)C[C@@H]2Oc3ccc(NC(=O)Cn4cnnn4)cc3CC(=O)N([C@H](C)CO)C[C@@H]2C)cc1", "relative growth": "inactive: 1"}
{"smiles": "C[C@@H]1CN([C@@H](C)CO)C(=O)c2cc(NC(=O)CCCCCC(=O)Nc3ccccc3N)ccc2O[C@@H]1CN(C)S(C)(=O)=O", "relative growth": "inactive: 0.979"}
